About 4,700 (1.2%) of roughly 390,000 compounds were called active. Inconclusive results, whose numbers are uncertain, are shown with a selection of clear calls. The call rests on the fitted dose curve; in most records, active means well fitted inhibition curve with a large enough effect; inconclusive means small, poorly fitted or top-dose-only effect, or another doubt; inactive means no such curve, though single readings can be large or run the other way. Where the call is inconclusive, the potency comes from a doubtful curve fit.
biological target: DNA polymerase eta (Homo sapiens) (UniProt Q9Y253); assay: qHTS for Inhibitors of Polymerase Eta; conditions: recombinant Pol eta, fluorescent DNA replication assay; series mostly up to 114 µM
Method in brief: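 Fluorescent replication assay: 50 nM final substrate added after a 15 min room-temperature compound preincubation with 10 nM enzyme. Signal taken at 0 min and again at 10 min.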
Potency means the concentration at half of the fitted maximal effect; tags describe the fitted curve by direction and shape.

Sequence of UniProt Q9Y253 (Q9Y253 whole entry, looked up): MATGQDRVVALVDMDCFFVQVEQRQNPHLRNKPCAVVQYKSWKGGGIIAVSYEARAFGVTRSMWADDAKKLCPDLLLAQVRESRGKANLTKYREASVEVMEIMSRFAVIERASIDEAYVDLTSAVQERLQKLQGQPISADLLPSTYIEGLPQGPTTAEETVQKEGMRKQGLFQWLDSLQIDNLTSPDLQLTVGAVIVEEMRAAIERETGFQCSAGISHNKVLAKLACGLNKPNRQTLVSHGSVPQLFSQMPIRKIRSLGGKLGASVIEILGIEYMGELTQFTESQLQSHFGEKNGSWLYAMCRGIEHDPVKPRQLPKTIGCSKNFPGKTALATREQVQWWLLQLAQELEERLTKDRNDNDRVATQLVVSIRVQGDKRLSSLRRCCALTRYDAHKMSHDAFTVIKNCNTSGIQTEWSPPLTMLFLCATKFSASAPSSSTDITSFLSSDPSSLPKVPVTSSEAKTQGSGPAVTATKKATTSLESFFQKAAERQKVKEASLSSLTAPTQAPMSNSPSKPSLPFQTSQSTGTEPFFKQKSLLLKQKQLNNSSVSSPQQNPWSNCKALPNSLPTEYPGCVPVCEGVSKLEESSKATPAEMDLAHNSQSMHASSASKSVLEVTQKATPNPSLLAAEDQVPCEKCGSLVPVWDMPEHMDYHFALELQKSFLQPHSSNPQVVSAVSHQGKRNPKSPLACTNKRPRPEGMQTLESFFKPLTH

SMILES	Potency
COc1ccc(NC(=O)Nc2cc(C)ccc2OC(F)F)c(OC)c1	inconclusive: 39.8 µM [inhibitor, single point]
C/C(=N\OCC(=O)OCC(=O)NCc1ccccc1)c1ccc2c(c1)OCO2	active: 20 µM
COc1cc(/C=C/c2cc[n+](C)cc2)ccc1OCC(=O)Nc1ccc(Cl)c(Cl)c1	active: 89.1 µM
CC1=[N+](C)c2ccc3ccccc3c2C1(C)C	inactive
O=C(O)Cn1ncc2c1-c1ccoc1CC2	inconclusive: 35.5 µM [inhibitor, single point]
N#C/C(=C\c1ccc(F)cc1)c1nc(-c2ccco2)cs1	inconclusive: 31.6 µM [inhibitor, partial curve, poor fit]
CCOc1ccc(C(=O)Nc2ccc3c(c2)C(=O)NC3=O)cc1	inactive
CC(=O)Nc1ccc(S(=O)(=O)Nc2nc3nc(-c4ccccc4)cc(-c4ccccc4)n3n2)cc1	inactive
COC(=O)c1cc2c(-c3ccccc3)c(C)c3ccccn3c-2c1C(=O)OC	inconclusive: 56.2 µM [inhibitor, partial curve]
CCC(=O)N(CCC(Cc1ccccc1)c1ccco1)Cc1ccco1 (configuration not stated)	inconclusive: 79.4 µM [inhibitor, partial curve, poor fit]
N#C/C(=C/c1ccc(C(=O)O)cc1)C(=O)NCc1ccccc1	inactive
CC(=O)c1c(COC(=O)c2ccco2)nc2ccccc2[n+]1[O-]	inconclusive: 20 µM [inhibitor, partial curve, poor fit]
O=[N+]([O-])c1ccc(N/N=C/c2cn(Cc3ccc(F)cc3)c3ccccc23)nc1	inconclusive: 28.2 µM [inhibitor, partial curve, poor fit]
NC(=O)CC(NC(=O)Cc1ccc(Br)cc1)c1ccc(NC2CC3CCC2C3)c([N+](=O)[O-])c1 (configuration not stated)	inconclusive: 79.4 µM [inhibitor, partial curve, poor fit]
Cc1cc(NC(=O)NC(=O)c2ccccc2NC(=O)CN)ccc1Oc1ncc(Br)cn1	inconclusive: 22.4 µM [inhibitor, single point]
O=c1cc(CSc2nnnn2-c2ccccc2)nc(Nc2ccc(F)cc2)[nH]1	inconclusive: 25.1 µM [inhibitor, partial curve, poor fit]
CCCCCCNC(=O)c1cc(-c2ccco2)nc2ccccc12	active: 12.6 µM
O=c1cc(/C=C/c2c(F)cccc2Cl)[nH]c2ccccc12	active: 11.2 µM
O=C(CSc1nc(=O)n(Cc2ccncc2)c2c1CCC2)Nc1cccc(F)c1	inactive
Cc1cc(NS(=O)(=O)c2ccc(NC(=O)CCCOc3ccccc3C)cc2)nc(C)n1	active: 79.4 µM
COc1ccc(-c2cc(C(F)(F)F)n3nc(C(=O)NCc4ccco4)cc3n2)cc1	inactive
CCN(CC)Cc1cc(O)c(CN(CC)CC)cc1O	active: 50.1 µM
O=[N+]([O-])c1ccc(Nc2nc(Cl)nc(NCCO)n2)cc1	inactive

SMILES	Potency
CCOc1cccc2cc(-c3nnc(NCc4ccco4)s3)c(=O)oc12	inconclusive: 14.1 µM [inhibitor, full curve]
COc1ccc(NC(=O)/C=C/c2cc(Br)ccc2OC)cc1	inactive
O=[N+]([O-])c1cc(/C=N/Nc2nc3ccccc3[nH]2)c(O)cc1O	active: 4.47 µM
Cc1ccc2nc(Nc3nc(-c4ccccc4)cc(=O)[nH]3)nc(C)c2c1	inconclusive: 8.91 µM [inhibitor, full curve, poor fit]
CCC(=O)N1c2ccccc2CC1C(=O)NCCN1CCN(c2cc(Cl)ccc2C)CC1 (configuration not stated)	inactive
CC1CCN(CCNC(=O)c2ccc3c(=O)n(Cc4ccc(Cl)cc4)c(=S)[nH]c3c2)CC1	inconclusive: 31.6 µM [inhibitor, partial curve, poor fit]
CCCCC(=O)Nc1ccc(C(=O)Nc2ccc(OC)cc2[N+](=O)[O-])cc1	inconclusive: 25.1 µM [inhibitor, partial curve, poor fit]
O=C(CNC(=O)c1cccc(-n2cccc2)c1)Nc1ccccc1Br	active: 31.6 µM
Cc1ccc(Cn2ncn3c(cc4ccccc43)c2=O)cc1	inconclusive: 79.4 µM [inhibitor, partial curve, poor fit]
Cc1ccc(NC(=O)CCC(=O)N/N=C/c2ccc([N+](=O)[O-])o2)cc1C	inactive
O=C(COC(=O)CC12CC3CC(CC(C3)C1)C2)Nc1ncc(Cl)cc1Cl	inconclusive: 50.1 µM [inhibitor, partial curve, poor fit]
CCOC(=O)Oc1ccc(/C=C2\N=C(C)OC2=O)cc1	inactive
Cc1cc(C)cc(NC(=O)C(CC(C)C)NC(=O)C2CCCCC2)c1 (configuration not stated)	inactive
CS(=O)(=O)C1=NSC2=NC(=O)/C(=C\c3cccn3-c3ccccc3Cl)C(=N)N21	active: 39.8 µM
Cc1ccc(S(=O)(=O)N2C[C@H]3n4c(=O)ccc(=O)n4C[C@H](OC(=O)Nc4cccs4)[C@@]3(O)C2)cc1	inconclusive: 56.2 µM [inhibitor, partial curve]
COc1ccccc1NC(=O)CCSCCC(=O)Nc1ccccc1OC	inconclusive: 28.2 µM [inhibitor, single point]
CCc1ccccc1N1CC(c2nc3ccccc3n2CCOc2ccc(Cl)c(C)c2)CC1=O (configuration not stated)	inconclusive: 35.5 µM [inhibitor, partial curve, poor fit]
CCOC(=O)CN1Cc2cccc(C(=O)O)c2C1=O	inconclusive: 28.2 µM [inhibitor, single point]
Nc1[nH]n2c(=O)c3c(nc2c1N=Nc1ccc(Cl)cc1)CCCC3	inconclusive: 31.6 µM [inhibitor, partial curve, poor fit]
CCOc1ccc(Nc2nc3c(S(=O)(=O)c4ccc(CC)cc4)nnn3c3ccc(Cl)cc23)cc1	inconclusive: 89.1 µM [inhibitor, partial curve]
Cc1cc(NC(=O)c2cccs2)n(-c2nc3ccccc3[nH]2)n1	inconclusive: 14.1 µM [inhibitor, partial curve, poor fit]
O=C(Nc1ccc(Cl)cc1C(=O)O)c1ccc2c(c1)C(=O)N(Cc1ccco1)C2=O	active: 79.4 µM
Nc1ccccc1Sc1ccc(C(F)(F)F)cc1[N+](=O)[O-]	inconclusive: 50.1 µM [inhibitor, partial curve, poor fit]

SMILES	Potency
Cc1cc(N2CCOCC2)ccc1/C=C1\NC(=O)N(CC(=O)Nc2ccc(F)cc2)C1=O	inactive
COc1ccc(C2=NS(=O)(=O)N(C)C(C(=O)NCc3ccc(F)cc3)=C2)cc1OC	inactive
CCOc1ccccc1C(=O)N/N=C/c1coc2ccc(C)cc2c1=O	inconclusive: 79.4 µM [inhibitor, partial curve]
O=C(NCCn1cc(SCc2ccccc2)c2ccccc21)c1cccs1	inactive
COc1ccc(OC)c(NC(=O)c2cccnc2Sc2cc(C)ccc2C)c1	inconclusive: 50.1 µM [inhibitor, partial curve]
CCOC(=O)c1cccc(NC(=O)CCc2nc(-c3ccccc3F)no2)c1	inconclusive: 89.1 µM [inhibitor, partial curve, poor fit]
CCOc1ccc(NC(=O)CN(C)C(=O)Cc2c(C)nc3ccccc3c2C)cc1OCC	inconclusive: 31.6 µM [inhibitor, partial curve, poor fit]
C=C(C)Cn1c(N2CCC(Cc3ccccc3)CC2)nc2c1c(=O)[nH]c(=O)n2C	inconclusive: 50.1 µM [inhibitor, partial curve, poor fit]
Cc1cc(C(=O)OCC(=O)Nc2sc3c(c2C#N)CCC(C)C3)c2ccccc2n1 (configuration not stated)	active: 79.4 µM
CCOC(=O)c1c(C)oc2c1cc(NS(=O)(=O)c1ccc(C)cc1)c1ccccc12	inconclusive: 39.8 µM [inhibitor, partial curve, poor fit]
CCCCOC(=O)CSC1=C(C#N)C(c2ccccc2OCC)C(C#N)C(=O)N1 (configuration not stated)	inactive
C=CCn1c(SCC(=O)Nc2ccc(F)cc2)nc2cc(C(=O)O)ccc2c1=O	inactive
NC(=O)c1c(NC(=O)C2CCCO2)sc2c1CCCCC2 (configuration not stated)	inconclusive: 20 µM [inhibitor, full curve, poor fit]
CCN1CCc2c(sc(-n3cccc3)c2C(C)NC(=O)Nc2cc(Cl)c(OC)cc2OC)C1 (configuration not stated)	inactive
O=c1cc(NCc2ccco2)[nH]c(=O)n1-c1ccc(Br)cc1	inconclusive: 50.1 µM [inhibitor, partial curve, poor fit]
Cc1cc(O)c(Oc2cc(C)cc(O)c2O)c(O)c1	active: 22.4 µM
Cc1ccc2nc(-c3ccc(SCC(=O)Nc4ccc5c(c4)OCCO5)nc3)[nH]c2c1	inconclusive: 31.6 µM [inhibitor, partial curve, poor fit]
CC(=O)C1=C(C)N(Cc2ccccc2)C(=O)N[C@H]1c1ccco1	inconclusive: 79.4 µM [inhibitor, partial curve, poor fit]
COc1ccc(-c2ccc(NS(=O)(=O)c3cc([N+](=O)[O-])c(C)c([N+](=O)[O-])c3)cc2)nn1	inconclusive: 28.2 µM [inhibitor, partial curve, poor fit]
Cc1ccc(S(=O)(=O)N2CCCc3cc(NS(=O)(=O)c4ccccc4)ccc32)cc1	inconclusive: 50.1 µM [inhibitor, partial curve, poor fit]
COC/C=C/C1=CC2=CC(=O)C(C)(OC(=O)c3cnc4ccccc4n3)C(=O)C2=CN1CC1CC1 (configuration not stated)	inconclusive: 25.1 µM [inhibitor, full curve]

From PubChem BioAssay AID588591 (National Center for Advancing Translational Sciences (NCATS), 2011)
